Reference: PubChem BioAssay AID488969 (Vanderbilt High Throughput Screening Facility, 2010)
Over roughly 110,000 compounds, “z-score” has its median near -0.1; the highest 2% begin near 2. The list shows a part of the results.

These compounds were tested against Metabotropic glutamate receptor 8 (Rattus norvegicus) (UniProt P70579) (assay: mGluR8 Gi/Go-coupled signaling modulation – cell-based, rat, thallium flux, HTS, primary screen (AID 488969)). Details: HEK293 rat mGluR8, GIRK (G protein-gated inwardly rectifying potassium channel) thallium flux, FluoZin2; at 10 µM; stronger effect = higher value; submaximal glutamate (EC20) added with thallium.
Chain of UniProt P70579 (P70579 whole entry, looked up): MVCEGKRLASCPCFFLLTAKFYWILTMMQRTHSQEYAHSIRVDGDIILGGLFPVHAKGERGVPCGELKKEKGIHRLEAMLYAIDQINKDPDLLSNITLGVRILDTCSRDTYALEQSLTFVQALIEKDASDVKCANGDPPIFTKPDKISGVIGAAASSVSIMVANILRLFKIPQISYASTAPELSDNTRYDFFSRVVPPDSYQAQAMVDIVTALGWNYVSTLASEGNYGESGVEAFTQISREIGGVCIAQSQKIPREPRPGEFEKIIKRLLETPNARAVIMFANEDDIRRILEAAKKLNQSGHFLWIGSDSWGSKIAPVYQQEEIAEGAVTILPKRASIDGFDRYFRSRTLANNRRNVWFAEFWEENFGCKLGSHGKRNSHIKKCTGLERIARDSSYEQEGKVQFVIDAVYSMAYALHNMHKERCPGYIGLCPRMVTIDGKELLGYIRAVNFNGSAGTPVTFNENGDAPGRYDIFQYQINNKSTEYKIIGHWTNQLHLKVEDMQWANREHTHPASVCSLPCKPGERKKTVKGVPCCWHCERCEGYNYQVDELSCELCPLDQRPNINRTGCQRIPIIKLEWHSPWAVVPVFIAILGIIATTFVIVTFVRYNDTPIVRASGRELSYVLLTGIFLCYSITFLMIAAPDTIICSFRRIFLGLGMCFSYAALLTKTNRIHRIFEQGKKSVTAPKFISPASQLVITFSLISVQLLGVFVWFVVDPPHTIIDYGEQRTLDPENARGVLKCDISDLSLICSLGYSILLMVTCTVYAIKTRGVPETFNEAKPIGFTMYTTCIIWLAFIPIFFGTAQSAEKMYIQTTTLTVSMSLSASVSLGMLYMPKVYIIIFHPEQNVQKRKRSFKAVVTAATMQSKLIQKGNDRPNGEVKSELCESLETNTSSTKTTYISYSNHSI
Cc1ccccc1Nc1ncccc1C(=O)N1CCOCC1 was tested, and the z-score was -0.0556. CCCN1C(=O)c2cc(C(=O)O)ccc2C1O (configuration not stated) showed a z-score of 0.176. Compound CCOC(=O)c1cc(NC(=O)Nc2nccs2)c(C)nc1C has a z-score of -0.407. Compound Cc1cc(Cl)c(S(=O)(=O)NC2CCCCC2)cc1OCC(=O)Nc1nncs1 has a z-score of -0.88. Work on CC(=C/c1ccccc1)/C=C1/SC(N2CCOCC2)=NC1=O yielded a z-score of -0.529. Work on CCN(CC)CCNC(=O)Cc1nn(CC)c(=O)c2ccccc12 yielded a z-score of -0.0929. For O=C(NC(=S)Nc1ccc(S(=O)(=O)N2CCCC2)cc1)c1cccs1, the z-score was 1.1. For CCN(c1ccccc1)S(=O)(=O)c1cc(C(=O)Nc2cccc(Cl)c2)ccc1F, the z-score was -0.0119. Cc1cc(C)cc(NCC(=O)Nc2c(C)cccc2C)c1 showed a z-score of -0.341. Cc1nc2cc(NC(=O)NCc3ccc4c(c3)OCO4)ccc2o1 showed a z-score of -0.547. With CCn1c(=NC(=O)CSCC(=O)Nc2nccs2)sc2ccccc21 the z-score was -0.268. For Clc1ccc(Cn2ncc3c(NCc4ccccc4)ncnc32)cc1, the z-score was -0.00966. Compound Cc1nc2ccccc2n1CC(=O)N1CC(=O)Nc2ccccc21 has a z-score of -0.551. With COc1ccccc1NC(=O)c1sc(NC(=O)c2ccco2)c(C#N)c1C the z-score was -0.103. Work on Cc1ccc2c(CSc3nc4ccccc4c(=O)n3CCCO)cc(=O)oc2c1C yielded a z-score of 0.157. Compound CCOc1ccc(C(C)=O)cc1CSc1nnc(-c2cccs2)n1CC1CCCO1 (configuration not stated) has a z-score of 0.216. CCc1ccccc1NS(=O)(=O)c1ccc(SC)cc1 was tested, and the z-score was -0.416. CC1CCN(c2ccc(C(=O)NCc3ccc4c(c3)OCO4)cc2[N+](=O)[O-])CC1 showed a z-score of -0.76. For C=C1c2cc(CC)ccc2NC(=O)N1c1ccc(C)cc1, the z-score was -0.0751. Compound O=c1[nH]nc(CSCc2ccccc2Cl)[nH]1 has a z-score of -1.05. CCCC(=O)Nc1ccc(-c2ccc(NC(=O)CCC)cc2)cc1 gave a z-score of 1.49. Compound CCOC(=O)N1CCN(C(=O)Nc2ccc(Cl)cc2Cl)CC1 has a z-score of -0.0245. For O=C(c1cccc(-n2cnnn2)c1)N1CC=C(c2ccccc2)CC1, the z-score was 0.39. Cc1ccccc1OCCn1cnc2c(N)ncnc21 gave a z-score of -0.648. Work on CN(C)c1ccc(C2C3C(=O)NC(=O)C3ON2c2ccc(Cl)cc2)cc1 (configuration not stated) yielded a z-score of 2.58. With CN1C(=O)N(C)C2(c3ccccc3)NC(=O)NC12c1ccccc1 (configuration not stated) the z-score was 0.541. C=CCn1c(SCC(N)=O)nnc1-c1ccccc1O gave a z-score of -0.0316. With Cc1ccc(NC(NC(=O)c2cccnc2)C(Cl)(Cl)Cl)cc1 (configuration not stated) the z-score was -1.99. Work on C=C(C)CN=C1SC(C(=O)Nc2sc3c(c2C(=O)OC)CCC3)C(N)=C1C(N)=O (configuration not stated) yielded a z-score of 0.236. O=C(CSc1nnc(COc2ccc(Cl)cc2)o1)OC1CCCCC1 gave a z-score of 0.412. Work on O=C(C1=C(O)/C(=C/c2ccc(O)cc2)CCC1)C(F)(F)F yielded a z-score of 0.181. S=C(NCCN1CCOCC1)Nc1cccc2ccccc12 showed a z-score of -0.0659.
